# Experimental data reported in paper PMC4336329 (PLoS ONE, 2015).
# In all, about 310,000 compounds went through this assay and about 2,200 (0.71%) showed an effect of 50% or more. Effects have a minus sign here. Some of the results follow.
# Molecular target: human ether-à-go-go-related gene (hERG) potassium channel (human, UniProt Q12809)
# Assay: primary screen, population patch clamp on CHO cells stably expressing hERG
# Chain of human ether-à-go-go-related gene (hERG) potassium channel (Q12809 whole entry, looked up): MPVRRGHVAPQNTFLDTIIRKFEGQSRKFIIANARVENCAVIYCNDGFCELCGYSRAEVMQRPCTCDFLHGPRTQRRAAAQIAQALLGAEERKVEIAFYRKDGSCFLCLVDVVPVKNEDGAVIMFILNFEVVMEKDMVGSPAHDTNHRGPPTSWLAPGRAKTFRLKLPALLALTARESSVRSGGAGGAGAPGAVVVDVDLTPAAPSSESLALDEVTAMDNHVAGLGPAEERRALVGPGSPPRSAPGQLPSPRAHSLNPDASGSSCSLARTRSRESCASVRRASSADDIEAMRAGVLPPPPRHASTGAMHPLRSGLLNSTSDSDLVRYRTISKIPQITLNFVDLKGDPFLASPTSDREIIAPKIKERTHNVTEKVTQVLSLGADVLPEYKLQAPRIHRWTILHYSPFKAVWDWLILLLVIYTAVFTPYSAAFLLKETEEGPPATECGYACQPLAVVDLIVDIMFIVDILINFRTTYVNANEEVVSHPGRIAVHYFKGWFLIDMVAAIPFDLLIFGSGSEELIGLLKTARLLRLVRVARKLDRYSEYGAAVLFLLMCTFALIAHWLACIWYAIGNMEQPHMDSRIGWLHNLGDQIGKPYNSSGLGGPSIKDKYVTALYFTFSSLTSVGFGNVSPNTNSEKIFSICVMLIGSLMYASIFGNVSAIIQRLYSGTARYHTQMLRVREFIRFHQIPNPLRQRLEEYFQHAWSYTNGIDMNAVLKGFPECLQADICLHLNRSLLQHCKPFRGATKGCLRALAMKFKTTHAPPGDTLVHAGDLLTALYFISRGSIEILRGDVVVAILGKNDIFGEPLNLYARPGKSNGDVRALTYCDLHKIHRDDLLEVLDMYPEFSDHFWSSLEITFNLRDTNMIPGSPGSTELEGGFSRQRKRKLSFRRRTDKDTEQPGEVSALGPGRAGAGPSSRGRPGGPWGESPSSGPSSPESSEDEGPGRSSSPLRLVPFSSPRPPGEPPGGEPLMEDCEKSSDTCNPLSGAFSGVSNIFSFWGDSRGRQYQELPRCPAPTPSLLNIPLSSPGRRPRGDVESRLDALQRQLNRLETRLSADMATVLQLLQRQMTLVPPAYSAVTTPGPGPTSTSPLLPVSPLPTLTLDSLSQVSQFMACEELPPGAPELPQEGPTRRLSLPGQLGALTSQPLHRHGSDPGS
row,SMILES,"hERG current change (%, negative = inhibition) at 1uM [%]"
1,COC(=O)C1(S(=O)(=O)c2cc(Br)cc3c2N(C(C)=O)CC3)CC1,7.31
2,Fc1ccc(OCCOCCOc2cccc3[nH]ccc23)cc1,17.7
3,COC(=O)C1CC(=O)N(c2ccc(OCc3ccccc3Cl)cc2)C1 (stereo not drawn),9.09
4,CCCCOc1ccc(-c2nnn(CC(=O)Nc3ncc(CC(=O)OCC)s3)n2)cc1,15.2
5,Cc1cc(/C=C2/NC(=O)NC2=O)c(C)n1-c1ccncc1,9.13
6,O=C(O)c1ccc(-n2cccn2)c([N+](=O)[O-])c1,12.3
7,CC(C)OP(=O)(OC(C)C)C(NC(=O)c1ccc(Br)cc1)c1ccccc1 (stereo not drawn),-0.7
8,Cc1ccc(CNC(=O)CSc2nccn(-c3ccc(C)c(F)c3)c2=O)cc1,6.77
9,COC(=O)c1ccccc1NC(=O)NC1CCCCC1,13.8
10,COc1cccc(/C=N/Nc2cc(Cl)nc(C)n2)c1O,11.3
11,CCOC(=O)c1cnn(-c2cc(C)nc3c(-c4ccccc4)cnn23)c1N,2.33
12,Fc1ccc(-c2nc3ccccn3c2NCc2ccc3c(c2)OCO3)cc1,4.69
13,CC(C)CCNC(=O)C1(c2cccs2)CCOCC1,12.6
14,C=Cc1ccc(COC(=O)c2cn(CC)c3nc(C)ccc3c2=O)cc1,-21
15,C[C@H]1CN=C(N(C)C)N1CCCCc1ccccc1,-5.58
16,CCOC(=O)Cc1csc(SCC(=O)NC2CCS(=O)(=O)C2)n1 (stereo not drawn),17.2
17,COc1ccccc1N=Nc1nc(-c2ccccc2)c(-c2ccccc2)[nH]1,2.06
18,Cc1ccc(NC(=O)C(C)OC(=O)CCC2CCCCC2)cc1 (stereo not drawn),3.25
19,COc1cccc(N(C(=O)CNC(=O)c2ccco2)C(C(=O)NC2CCCC2)c2ccncc2)c1 (stereo not drawn),9.57

row,SMILES,"hERG current change (%, negative = inhibition) at 1uM [%]"
1,CCN(Cc1ccncc1)C(=O)CCc1ccccc1,9.35
2,CC(C)c1nnc(NC(=O)CS(=O)(=O)c2ccccc2)s1,8.65
3,COc1ccc(C(=O)Nc2nnc(CC(=O)N/N=C/c3ccc(O)cc3O)s2)cc1,15
4,CCOc1ccc2nc(NCCCNS(=O)(=O)c3ccccc3)c(C#N)cc2c1,-6.51
5,COC(=O)c1sccc1NC(=O)COc1ccc(Cl)cc1Cl,13.5
6,COc1cc(Cl)c(C)cc1NC(=O)CCCn1c(=O)oc2ccccc21,9.24
7,O=C(NCc1ccc(Cl)cc1)c1ccc(Cl)cc1[N+](=O)[O-],5.08
8,O=C(COC(=O)CCN1C(=O)c2ccccc2C1=O)Nc1ccc(S(=O)(=O)N2CCCC2)cc1,-0.242
9,COc1cccc(-c2cc(C(F)(F)F)n3nc(C(=O)N4CCCCC4c4cccnc4)cc3n2)c1 (stereo not drawn),11.2
10,O=C(C1COc2ccccc2O1)N1CCN(Cc2ccc3c(c2)OCO3)CC1 (stereo not drawn),-8.61
11,CC(=O)c1ccc(Sc2ccccn2)c([N+](=O)[O-])c1,10.3
12,COc1cc(C(=O)Nc2ccc(OCC(=O)O)cc2)cc(OC)c1OC,16.4
13,CC1(C)Cc2c(C#N)c(NCCCO)nc(-c3ccccc3)c2CO1,-13.3
14,CC1CCCC(C)N1C(=O)COC(=O)C1CCN(S(=O)(=O)c2c(Cl)cccc2Cl)CC1 (stereo not drawn),1.72
15,Cc1ccc(N2CC(C(=O)N3CCCCC3)CC2=O)cc1C (stereo not drawn),-3.77
16,O=[N+]([O-])c1ncccc1Oc1nc(-c2cccnc2)nc2ccccc12,10.2
17,CC(=O)N[C@@H]1c2c(ccc3ccccc23)OC[C@@H]1COC(C)=O,8.59
18,CCOP(=O)(OCC)c1nc(/C=C/c2ccccc2)oc1NCc1ccccc1,7.49
19,CSc1nc2ccccc2n1Cc1c(Cl)cccc1Cl,11.6

row,SMILES,"hERG current change (%, negative = inhibition) at 1uM [%]"
1,COc1ccc(Oc2c(C)oc3c(CN4CCOCC4)c(O)ccc3c2=O)cc1,19
2,O=C(Nc1cccc(NC(=O)C2CCCO2)c1)c1ccco1 (stereo not drawn),10.9
3,Cc1cc(OCC(=O)Nc2ccncc2)cc(C)c1Cl,16.2
4,COc1ccc(OC)c(CN(CCN2CCOCC2)C(=O)Nc2cccc(Cl)c2)c1,8.87
5,CC1(C)O[C@@H]2CC3C4C[C@H](F)C5=CC(=O)C=CC5(C)C4C(O)CC3(C)[C@]2(C(=O)CO)O1 (stereo partly drawn),14.9
6,Cc1cccc(OCCC(=O)N(C)CC(=O)Nc2cccc3ccccc23)c1,4.62
7,CC(=O)COc1ccc2c3c(c(=O)oc2c1)CCCC3,-4
8,Cc1c(NC(=O)CCCN2C(=O)c3cccc4cccc(c34)C2=O)c(=O)n(-c2ccccc2)n1C,5.17
9,Cc1ccc(CCNC(=O)Cn2ccc3cc(S(=O)(=O)N4CCCC4)ccc32)cc1,9.34
10,O=C(C1CCC(CNS(=O)(=O)c2cccs2)CC1)N1CCN(c2ccc(F)cc2)CC1 (stereo not drawn),-11.4
11,COc1cc(C(C)=O)ccc1OCC(O)CNCC1(N2CCCCC2)CCCCC1.O=C(O)C(=O)O (stereo not drawn),2.35
12,Cn1c(=O)cc(N2CCCCC2)[nH]c1=O,11.2
13,COc1ccccc1N1CCN(CC(O)COCCOc2ccc(Br)cc2)CC1.Cl (stereo not drawn),6.16
14,O=C1OCC(CO)(CO)N=C1NNc1ccccc1Cl,14.6
15,CCS(=O)(=O)NC(C)C(c1cccs1)N1CCN(c2ccc(F)cc2)CC1 (stereo not drawn),15.4
16,O=C(CN1CCN(c2ccc(F)cc2)CC1)Nc1nccs1,9.4
17,O=C(Nc1ccccc1)O/N=C(\c1ccccc1)c1ccccn1,5.35
18,COc1ccc(-c2nc(CC(=O)O)cs2)cc1,7.21
19,COC(=O)c1cccc(NC(=O)CSc2nc(=O)cc(N)n2-c2ccccc2)c1,18.3
